In PubChem BioAssay AID463173 (ICCB-Longwood Screening Facility, Harvard Medical School, 2010) one finds survival data, which are given here for 90 compounds.

Among all 52,000 compounds or so, about 4,300 (8.3%) were called active. Cut-off read from the data, not from the text of the source: active = survival mostly below about 52% (no sharp cut-off); inactive = mostly above about 56%. The list shows a part of the results.

In this experiment the test system is DeltatarO mutant. Kind of experiment: S. aureus survival, RN4220 and DeltatarO strains – OD600, teichoic acid synthesis inhibitors, primary screen (AID 463173). The conditions noted are these: S. aureus RN4220 wild type/DeltatarO growth, OD600, 18 h, hits give low values, screened at 18.75 µg/mL (by protocol).
Regarding `Cc1cccc(Nc2nc(-c3ccccc3)c3cc(C)ccc3n2)c1`, the survival was active: 3%.

In the case of `O=[N+]([O-])c1cc(-c2nc(-c3ccccc3)no2)ccc1N1CCCC1`, the survival is inactive: 63%.

As to `Cc1ccccc1NCc1cccn1-c1nnc(N2CCOCC2)s1`, the survival is inactive: 112%.

In the case of `Cc1nc2cc(-c3ccc(Br)cc3)[nH]n2c(=O)c1Cl`, the survival was inactive: 79%.

Regarding `CC(C)OCCCn1c(SCC(=O)Nc2ccc(F)cc2)nc2c(sc3ccccc32)c1=O`, the survival is inactive: 108%.

For `Cc1ccc(NC(=O)CSc2nnc3[nH]c(=O)cc(C)n23)cc1Cl`, the survival was inactive: 82%.

Consider `Cc1sc2c(c1C)c(=O)n(-c1ccccc1)c(=O)n2CC(=O)c1ccc(Cl)cc1`, for which the survival was inactive: 71%.

With `COc1cccc(CNC(=O)CCc2nnc3n(CC(C)C)c(=O)c4ccccc4n23)c1`, the survival was inactive: 85%.

For the compound `CC(C)CC(=O)N1CC(=O)Nc2ccc(F)cc2C1c1ccccc1` (stereo not given), the survival was inactive: 144%.

For `CCC(Sc1nc2c(sc3ccccc32)c(=O)n1CCCC(=O)NC1CCCC1)C(=O)Nc1cccc(OC)c1` (stereo not given), the survival is inactive: 114%.

For `CC1(C)OC2C(CS(C)(=O)=O)OC(n3ncc(=O)[nH]c3=O)C2O1` (stereo not given), the survival is inactive: 86%.

As to `Cn1c(CNC(=O)CSc2n[nH]c(-c3ccccc3)n2)nc2ccccc21`, the survival was inactive: 89%.

Take `CC(C)(C)C1CCc2c(sc(NC(=O)Cn3nnc(-c4cccc(C(F)(F)F)c4)n3)c2C#N)C1` (stereo not given): the survival is inactive: 84%.

On to `CCCCCOC(=O)CSc1nc2sc3c(c2c(=O)n1Cc1ccccc1)CC(C)(C)OC3`, for which the survival was active: 41%.

As for `O=C(Cn1c(=O)n(-c2ccc(Cl)cc2)c(=O)c2c3c(sc21)CCC3)c1ccc(F)cc1`, the survival was inactive: 51%.

`CCCCc1nn2c(=O)cc(COC(=O)c3ccc(NC(=O)c4cccs4)cc3)nc2s1`: the survival was inactive: 75%.

`Fc1ccc(Nc2nc3nonc3nc2Nc2cccc(C(F)(F)F)c2)cc1`: the survival is active: -2%.

For the compound `COc1ccccc1N1CCN(C(=O)CSc2nc3ccccc3nc2Cc2ccc(F)cc2)CC1`, the survival was inactive: 95%.

`COc1ccccc1Cn1c(CNS(=O)(=O)c2ccc3c(c2)CCCC3)nc2cccnc21`: the survival is inactive: 96%.

In the case of `COc1ccccc1OCCSc1ncnc2nc[nH]c12`, the survival is inactive: 75%.

For `Cc1csc2nc(COc3ccc(NC(=O)COc4ccccc4F)cc3)cc(=O)n12`, the survival is inactive: 70%.

Turning to `C=CCNCc1cc2cc(OCC)ccc2[nH]c1=O`, the survival was inactive: 97%.

As for `O=C(NC1(C(F)(F)F)NC(=O)N(CCc2ccccc2)C1=O)c1ccccc1Cl` (stereo not given), the survival is inactive: 58%.

Take `C/C(=N/O)c1[nH]c(C)c(/C(C)=N\O)c1C`: the survival is inactive: 81%.

Consider `Cc1cccc(NC(=O)CSc2nnc(N)s2)c1`, for which the survival was inactive: 149%.

Take `CC(=O)c1cccc(NCc2ccccc2-c2nnc(-c3ccccc3)o2)c1`: the survival was inactive: 87%.

Turning to `CCOc1ccc(S(=O)(=O)N2CCC(N3CCN(Cc4ccc(F)cc4)C(=O)C3=O)CC2)cc1`, the survival was inactive: 75%.

Take `Cc1nc(-n2nc(C)c(Cc3ccccc3Cl)c2C)sc1C(=O)N1CCC(C)CC1`: the survival was inactive: 79%.

Take `CCOC(=O)C(CC)Sc1ncnc2sc3c(c12)CCCC3` (stereo not given): the survival is active: -7%.

As to `CCC(C)NS(=O)(=O)c1ccc(-n2cnnn2)cc1` (stereo not given), the survival is inactive: 107%.

In the case of `O=C(CCn1cccn1)NCc1ccc(Cl)cc1`, the survival was inactive: 73%.

Turning to `Cc1ccc(OCCSc2nc3ccc(NC(=O)c4ccc5c(c4)OCO5)cc3s2)cc1`, the survival was inactive: 87%.

As for `COc1ccc(NC(=O)c2cc3c(=O)n(C)c4ccccc4c3s2)cc1Cl`, the survival was inactive: 80%.

On to `CCOC(=O)C1CCCN(C(=O)c2c(C)nn(-c3ccc(F)cc3)c2-n2cccc2)C1` (stereo not given), for which the survival is inactive: 113%.

Turning to `O=C(Nc1ccc(F)cc1)C1CCN(c2nc3ccccc3n3cccc23)CC1`, the survival was inactive: 75%.

Take `CCCc1ccc(OC(=O)CSc2nnc(-c3cccs3)o2)cc1`: the survival is inactive: 64%.

As for `CCS(=O)(=O)N1CCc2cc(C(=O)Nc3cccc(C)c3C)ccc21`, the survival is inactive: 80%.

For `CCOc1ccc(-c2cc3c(=O)n(CC(=O)NCc4ccc(OC)cc4)ccn3n2)cc1`, the survival was inactive: 96%.

Consider `Cc1nn2c(=O)cc(COC(=O)c3cccc(NC(=O)COc4ccc(C)c(C)c4)c3)nc2s1`, for which the survival was inactive: 69%.

`Cc1c(-c2nsc(NC(=O)c3cccs3)n2)nnn1-c1ccc(Cl)cc1`: the survival is inactive: 81%.

With `CCN(CC)CCCNC(=O)c1ccc2c(c1)N(Cc1c(F)cccc1Cl)C(=O)c1ccccc1S2`, the survival is inactive: 137%.

On to `CCSc1ncc(Cl)c(C(=O)N(Cc2ccccc2Cl)C2CCS(=O)(=O)C2)n1` (stereo not given), for which the survival was inactive: 83%.

Consider `O=C(C1CCN(S(=O)(=O)c2cccs2)CC1)N1CCN(c2cccc(Cl)c2)CC1`, for which the survival was inactive: 64%.

With `O=C(NCCc1ccc(Cl)cc1)C(=O)NCC(c1ccco1)S(=O)(=O)c1cccs1` (stereo not given), the survival was active: 20%.

With `CSc1ncc2c(n1)-c1ccccc1N(Cc1ccc(F)cc1)S2(=O)=O`, the survival was inactive: 126%.

For `COC(=O)c1nnn(CC(=O)Nc2cc(F)ccc2F)c1C(=O)OC`, the survival was inactive: 139%.

`COCCSc1nnc(NC(=O)C2CCCO2)s1` (stereo not given): the survival was inactive: 111%.

`COc1ccc(C(CN)c2c[nH]c3ccccc23)cc1` (stereo not given): the survival is inactive: 107%.

As to `Cc1oc2ccc(O)c(CN3CCCCCC3)c2c1C(=O)Nc1cccc(Cl)c1C`, the survival is inactive: 94%.

In the case of `Cc1cccc(-n2ncc(C(=O)N3CCc4ccccc4C3)c2C2CCN(C(=O)OC(C)(C)C)CC2)c1`, the survival is inactive: 102%.

Regarding `CS(=O)(=O)N1CCC(NC(=O)Cc2ccccc2)CC1`, the survival was inactive: 78%.

Turning to `CCCn1c(=N)c(C(=O)NCc2cccnc2)cc2c(=O)n3cccc(C)c3nc21`, the survival was inactive: 53%.

As to `COc1cccc(-c2ccnc3c(-c4ccc(F)cc4)c(C)nn23)c1`, the survival is inactive: 93%.

For the compound `Cc1ccc(Oc2nc3c(c(=O)n(Cc4ccccc4)c(=O)n3C)n2C)cc1C`, the survival is inactive: 44%.

With `Cc1oc2ncnc(N3CCOCC3)c2c1C(=O)N1CCN(c2cccc(C(F)(F)F)c2)CC1`, the survival is active: -5%.

Turning to `CCN(C(=O)C1CCC(CNS(=O)(=O)c2cccc3nsnc23)CC1)c1cccc(C)c1` (stereo not given), the survival is inactive: 96%.

`CCN(C(=O)C1CCC(CNS(=O)(=O)c2cccc3nsnc23)CC1)c1ccccc1` (stereo not given): the survival was inactive: 63%.

For `CC1(C)CC(=O)c2cc(C(=O)Nc3ccc(Br)cc3)c(=O)[nH]c2C1`, the survival was inactive: 70%.

As to `COc1ccc(NC(=O)C2=C(C)Nc3ncnn3C2c2ccc(C)o2)cc1` (stereo not given), the survival is inactive: 96%.

For `O=C(CCCc1ccccc1)Nc1ncn[nH]1`, the survival is inactive: 99%.

On to `O=C(Cc1ccc(NC(=O)N2CCSc3ncccc32)cc1)NCc1ccccc1`, for which the survival was inactive: 84%.

Regarding `Cc1cc(C)cc(NC(=O)Cn2c(=O)n(C(C)C)c(=O)c3oc4ccccc4c32)c1`, the survival was inactive: 48%.

Take `COc1ccc(C2=NN(S(C)(=O)=O)C(c3cn(-c4ccccc4)nc3-c3cccs3)C2)cc1` (stereo not given): the survival was inactive: 169%.

Turning to `C#CCN1C(=O)C(O)(CC(=O)c2ccc(OC)c(OC)c2)c2cc(Br)ccc21` (stereo not given), the survival is inactive: 78%.

Turning to `Cc1ccc(CN2C(=O)c3ccccc3Sc3ccc(C(=O)NCc4ccco4)cc32)cc1`, the survival was inactive: 81%.

Take `COc1ccc(-n2nc(C(=O)Nc3ccc(Br)cc3C)c3c4ccccc4n(C)c3c2=O)cc1`: the survival was inactive: 97%.

As for `COc1ccc(C(=O)N2CC(=O)Nc3ccc(C)cc3C2c2ccccc2)cc1OC` (stereo not given), the survival is inactive: 61%.

For `CCOc1ccc(C2C=C(c3cccc(OC)c3)Nc3nnnn32)cc1` (stereo not given), the survival was active: 45%.

As to `COc1ccc(N=Cc2ccc(Br)s2)cc1`, the survival was inactive: 98%.

On to `O=C(COc1ccccc1)NCC(c1cccs1)S(=O)(=O)c1ccc(Cl)cc1` (stereo not given), for which the survival was inactive: 72%.

As to `CC(C)(C)c1ccc(C(=O)NNc2ncnc3c2cnn3-c2ccccc2)cc1`, the survival is inactive: 115%.

On to `CCN(C(=O)Cn1c(SCC(=O)Nc2ccc(OC)cc2)nc2ccccc21)c1cccc(C)c1`, for which the survival is inactive: 130%.

For `COc1cccc(C(=O)Nc2ccc(-n3nncc3-c3ccc(Br)cc3)cc2)c1OC`, the survival was inactive: 100%.

For the compound `COc1ccc(OCC(=O)N2CCN(C(=O)c3cc(OC)c(OC)c(OC)c3)CC2)cc1`, the survival was inactive: 80%.

Regarding `COc1ccc(/C=C/C(=O)N2CCC(c3nc4ccccc4o3)CC2)cc1OC`, the survival was inactive: 86%.

`CCOc1ccccc1NC(=O)N(C)CCc1c(C)nn(CC)c1C`: the survival is inactive: 120%.

On to `Cc1ccc(NC(=O)c2ccc(=O)n(CC(=O)Nc3c(C)cc(C)cc3C)n2)cc1`, for which the survival is inactive: 73%.

With `Cc1ccc(COc2ccc3oc(-c4ccccc4)c(C(=O)O)c3c2)cc1`, the survival was active: 34%.

As for `CCCC12CN3CC(C)(CN(C1)C3c1ccccc1Cl)C2=O` (stereo not given), the survival was inactive: 138%.

As to `CCNC(=O)c1c(NC(=O)COc2ccc(F)cc2)sc2c1CCCC2`, the survival is inactive: 59%.

Take `O=C(Nc1ccc(Br)cc1)N1CCC(CN2CCCC2)CC1`: the survival is inactive: 91%.

Take `O=C(NC1CCCC1)C(c1ccccc1)N(Cc1cccs1)C(=O)Cn1nnc2ccccc21` (stereo not given): the survival is inactive: 65%.

Turning to `CCOc1ccc(C2C(C(=O)Nc3ccc(OC)cc3)=C(C)Nc3nc(SCc4ccc(Cl)cc4)nn32)cc1` (stereo not given), the survival was inactive: 112%.

For `COc1ccc(NC(=O)CSc2c3c(nc4ccc(Cl)cc24)CCCC3)cc1Cl`, the survival is inactive: 55%.

Turning to `COc1ccc(N2CCN(CCCNC(=O)c3ccc4nc(CCc5ccccc5)oc4c3)CC2)cc1`, the survival was inactive: 89%.

On to `Cc1ccccc1NC(=O)CS(=O)(=O)c1cccc2nsnc12`, for which the survival was inactive: 80%.

In the case of `Cc1c(Cl)cccc1NC(=O)c1ccc(NC(=O)N2CCSc3ncccc32)cc1`, the survival is inactive: 72%.

Regarding `Cc1cnc(NC(=O)C(C)N2CCN(C)CC2)s1` (stereo not given), the survival is inactive: 98%.

As for `Cc1cccc(Nc2nc(C)nc(N)c2S(=O)(=O)c2ccccc2)c1`, the survival is inactive: 88%.

For the compound `Cc1c(C2=CCN(S(=O)(=O)c3ccc(Br)cc3)CC2)c2ccccc2n1CC(=O)N1CCCC1`, the survival is inactive: 59%.
